Reference: the supplement of paper PMC4967469
A lower IC50 marks a more sensitive line; a limit (>, <) means that the fit lies beyond the doses tested. AUC, from the same fit, is the share of area under the viability curve across the 256-fold dose range; values near 1 show little effect. The top dose, if marked as inferred, was calculated from the reported fits. Where an entry number is given, a second screen of the drug exists; the two often differ.

The cell lines below were run with NC(=O)[C@@H](CCC(F)(F)F)N(Cc1ccc(-c2ncon2)cc1F)S(=O)(=O)c1ccc(Cl)cc1 [BMS-708163] (assay: Viability of human cancer cell lines after 72 h of drug (GDSC screen)). Settings: screen: GDSC drug entry 205; top dose inferred.
Method: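 Human cancer cell lines in 384-well plates, medium with 10% serum, drug for 72 h over a 256-fold dose range (nine 2-fold or five 4-fold steps up to the top dose). Adherent lines were fixed and stained with the nucleic acid dye Syto60, suspension lines read with resazurin; signal relative to control wells, capped at 0 and 100%. One two-parameter sigmoid per drug and line, fitted in a mixed model over all curves with the slope shared within a line.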

Row | Cell Line | AUC | IC50
1 | HSC-39 (stomach, suspension, top dose 10.24 µM) | 0.99 | > 10.2 µM
2 | HT55 (large intestine, adherent, top dose 10.24 µM) | 0.99 | > 10.2 µM
3 | HT (B-cell lymphoma, suspension, top dose 10.24 µM) | 0.99 | > 10.2 µM
4 | HT-3 (cervix, adherent, top dose 10.24 µM) | 0.987 | > 10.2 µM
5 | HT-29 (large intestine, adherent, top dose 10.24 µM) | 0.966 | > 10.2 µM
6 | HT-115 (large intestine, adherent, top dose 10.24 µM) | 0.983 | > 10.2 µM
7 | HT-144 (melanoma, adherent, top dose 10.24 µM) | 0.983 | > 10.2 µM
8 | HT-1080 (fibrosarcoma, adherent, top dose 10.24 µM) | 0.989 | > 10.2 µM
9 | HT-1197 (bladder, adherent, top dose 10.24 µM) | 0.959 | > 10.2 µM
10 | HT-1376 (bladder, adherent, top dose 10.24 µM) | 0.972 | > 10.2 µM
11 | HTC-C3 (thyroid, adherent, top dose 10.24 µM) | 0.975 | > 10.2 µM
12 | HUTU-80 (digestive system, adherent, top dose 10.24 µM) | 0.991 | > 10.2 µM
13 | HeLa (cervix, adherent, top dose 10.24 µM) | 0.986 | > 10.2 µM
14 | Hep 3B2_1-7 (liver, adherent, top dose 10.24 µM) | 0.986 | > 10.2 µM
15 | Hey (ovary, adherent, top dose 10.24 µM) | 0.988 | > 10.2 µM
16 | Hs633T (fibrosarcoma, adherent, top dose 10.24 µM) | 0.992 | > 10.2 µM
17 | Hs683 (glioma, adherent, top dose 10.24 µM) | 0.988 | > 10.2 µM
18 | Hs746T (stomach, adherent, top dose 10.24 µM) | 0.976 | > 10.2 µM

Row | Cell Line | AUC | IC50
19 | Hs766T (pancreas, adherent, top dose 10.24 µM) | 0.984 | > 10.2 µM
20 | Hs939-T (melanoma, adherent, top dose 10.24 µM) | 0.986 | > 10.2 µM
21 | Hs940-T (melanoma, adherent, top dose 10.24 µM) | 0.979 | > 10.2 µM
22 | Hs-445 (Hodgkin lymphoma, suspension, top dose 10.24 µM) | 0.989 | > 10.2 µM
23 | Hs-578-T (breast, adherent, top dose 10.24 µM) | 0.987 | > 10.2 µM
24 | HuCCT1 (biliary tract, adherent, top dose 10.24 µM) | 0.98 | > 10.2 µM
25 | HuH-7 (liver, adherent, top dose 10.24 µM) | 0.987 | > 10.2 µM
26 | HuO9 (osteosarcoma, adherent, top dose 10.24 µM) | 0.984 | > 10.2 µM
27 | HuO-3N1 (osteosarcoma, adherent, top dose 10.24 µM) | 0.979 | > 10.2 µM
28 | HuP-T3 (pancreas, adherent, top dose 10.24 µM) | 0.971 | > 10.2 µM
29 | HuP-T4 (pancreas, adherent, top dose 10.24 µM) | 0.965 | > 10.2 µM
30 | IA-LM (large cell lung carcinoma, adherent, top dose 10.24 µM) | 0.985 | > 10.2 µM
31 | IGR-1 (melanoma, adherent, top dose 10.24 µM) | 0.99 | > 10.2 µM
32 | IGR-37 (melanoma, adherent, top dose 10.24 µM) | 0.989 | > 10.2 µM
33 | IHH-4 (thyroid, semi-adherent, top dose 10.24 µM) | 0.993 | > 10.2 µM
34 | IM-95 (stomach, adherent, top dose 10.24 µM) | 0.965 | > 10.2 µM
35 | IMR-5 (neuroblastoma, adherent, top dose 10.24 µM) | 0.975 | > 10.2 µM
36 | IPC-298 (melanoma, adherent, top dose 10.24 µM) | 0.987 | > 10.2 µM

Same assay, conditions: top dose 5 µM; screen: GDSC drug entry 1072; top dose inferred

Row | Cell Line | AUC | IC50
37 | HCC-366 (non-small cell lung carcinoma, adherent) | 0.985 | > 5 µM
38 | HCE-4 (oesophagus, adherent) | 0.99 | > 5 µM
39 | Hey (ovary, adherent) | 0.959 | > 5 µM
40 | Hs746T (stomach, adherent) | 0.958 | > 5 µM
41 | IGROV-1 (ovary, adherent) | 0.953 | > 5 µM
